In test [1] the target is T1, soluble recombinant human IGF-1R (Homo sapiens, UniProt P08069).
T1 construct: IGF-1R hetero-tetramere composed of 2a chains and the extracellular domains of 2β chains; purchased R&D Systems 305-GR-50
The test can be described thus: Biacore single cycle kinetics, around 600 RU captured h-IGF-1R. In kind it is binding. Particulars: mean of four experiments, read-out: dissociation constant KD. As for the experimental part: The dissociation constants (KD) of the binding of the antibodies on a recombinant soluble human-IGF-1R were defined by the ratio between the dissociation rate (koff) and the association rate (kon). The kinetic experiments were run on a Biacore X100 device using a CM5 sensor chip activated by a mouse anti-Tag His monoclonal antibody. Around 12000 RU of antibodies are chemically grafted on the carboxymethyldextan matrix using the amine kit chemistry.
The experiments were carried out at 25° C. with a flow rate of 30 μl/min using the HBS-EP+ buffer (GE Healthcare) as the running and sample dilution buffer. […]
The resulting sensorgrams were analysed by the Biaevaluation software with a 1:1 model. […]
For the 6 antibodies tested in this experiment the experimental data fitted well with an 1:1 model with significant koff values when the higher concentration was defined as a constant and the other four concentrations are calculated (see FIG. 18).
The dissociation constants (KD) calculated as the ratio: koff/kon and the half-live of the complexes calculated as the ratio: Ln(2)/koff are represented in the FIGS. 19 and 20. […]
Background: SPR reads the build-up and loss of mass on a sensor chip optically.

For test [2], the target named is T2, human IR (hIR) on hIR^+ transfected cell line (Homo sapiens, UniProt P06213).
T2 construct: expressed in transfected cells; host or cells: NIH 3T3
The test can be described thus: FACS on hIR^+ transfected cell line. The class given is binding. Particulars: increasing concentrations. As for the experimental part: In order to verify the absence of binding of both murine and chimeric antibodies on hIR, a stable cell line expressing the human IR (hIR) was used. The recognition of human cell surface hIR by both murine and chimeric Ab was performed by FACS analyses. Increasing concentration of either the murine or the chimeric mAbs were incubated on the hIR^+ transfected cell line for 20 minutes at 4° C. in FACS buffer (PBS, 0.1% BSA, 0.01% NaN3). Cells were then washed 3 times and incubated with the appropriate secondary antibody coupled with Alexa 488 before being incubated for 20 additional minutes at 4° C. in the dark and then washed 3 times in FACS buffer. The binding of anti-IGF-1R antibodies was immediately performed on viable cells which were identified using propidium iodide (that stains dead cells). The binding EC50 expressed in molarity (M) was calculated using a nonlinear regression analysis (GraphPad Prims 4.0). The anti-hIR antibody clone GRO5 was used as positive controls. The murine and chimeric 9G4 antibodies were introduced as irrelevant antibodies.
The binding of the first humanized form of the c208F2 mAb was evaluated on MCF-7, COS-7 and NIH 3T3 IR^+ cell lines. Increasing concentrations of m208F2, c208F2 or hz208F2 VH3VL3 were added on each cell line for 20 min. at 4° C. […]

B1: hz208F2 H026/L024: first humanized form of the 208F2 anti-IGF-1R mAb (antibody)
heavy: QVQLVQSGAEVKKPGASVKMSCKASGYTFTSYYIYWVKQAPGQGLEWLGWIWPGDGSTKYNEKFQGRVTLTADKSSNTAYMFLSSLRSEDTAVYFCASPMITPNYAMDYWGQGTLVTVSSASTKGPSVFPLAPSSKSTSGGTAALGCLVKDYFPEPVTVSWNSGALTSGVHTFPAVLQSSGLYSLSSVVTVPSSSLGTQTYICNVNHKPSNTKVDKRV[human IgG1 Fc not written out]
light: DIQMTQSPSSLSASVGDRVTISCRASQDISKYLNWYQQKPGKAPKLLIYYTSRLHSGVPSRFSGRGSGTDYSLTISNLQPEDFATYFCQQGSTLPYTFGGGTKVEIKRTVAAPSVFIFPPSDEQLKSGTASVVCLLNNFYPREAKVQWKVDNALQSGNSQESVTEQDSKDSTYSLSSTLTLSKADYEKHKVYACEVTHQGLSSPVTKSFNRGEC
B1: the Kd in test [1] is roughly 0.06 nM. The “binding on cell surface of hIR^+ transfected cells” value in test [2] was “absence of cross reactivity on the human insulin receptor”.

Broadly, the Kd is the equilibrium constant for the complex coming apart.

The values are drawn from US10633448B2, “IGF-1R antibody-drug-conjugate and its use for the treatment of cancer” (PIERRE FABRE MEDICAMENT, priority 2014, dated 2020).
